These results are taken from publication PMC7106839.

The chains behind the UniProt entries cited, without tags or fusion partners. Where a name states a change or a piece, a line headed by the entry shows the natural chain unless it says otherwise.
UniProt Q92841: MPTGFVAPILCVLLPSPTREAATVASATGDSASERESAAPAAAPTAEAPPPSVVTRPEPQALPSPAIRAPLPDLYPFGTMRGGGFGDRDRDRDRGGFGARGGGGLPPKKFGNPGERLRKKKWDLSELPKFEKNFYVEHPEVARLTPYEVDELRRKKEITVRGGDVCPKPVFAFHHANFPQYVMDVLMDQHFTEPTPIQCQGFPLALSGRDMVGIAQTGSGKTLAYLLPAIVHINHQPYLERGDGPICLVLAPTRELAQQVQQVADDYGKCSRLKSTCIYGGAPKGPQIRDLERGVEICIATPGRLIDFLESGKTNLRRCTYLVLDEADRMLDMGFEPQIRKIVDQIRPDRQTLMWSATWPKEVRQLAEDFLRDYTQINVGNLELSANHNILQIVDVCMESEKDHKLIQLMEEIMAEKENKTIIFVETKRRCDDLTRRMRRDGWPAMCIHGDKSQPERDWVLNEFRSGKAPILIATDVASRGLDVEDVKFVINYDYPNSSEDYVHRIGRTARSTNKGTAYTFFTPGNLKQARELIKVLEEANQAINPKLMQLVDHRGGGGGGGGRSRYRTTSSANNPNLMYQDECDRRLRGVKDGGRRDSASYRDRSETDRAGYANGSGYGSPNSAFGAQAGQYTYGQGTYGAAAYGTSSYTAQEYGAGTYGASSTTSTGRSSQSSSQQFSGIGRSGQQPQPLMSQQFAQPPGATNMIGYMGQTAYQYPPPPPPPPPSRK
UniProt P17844: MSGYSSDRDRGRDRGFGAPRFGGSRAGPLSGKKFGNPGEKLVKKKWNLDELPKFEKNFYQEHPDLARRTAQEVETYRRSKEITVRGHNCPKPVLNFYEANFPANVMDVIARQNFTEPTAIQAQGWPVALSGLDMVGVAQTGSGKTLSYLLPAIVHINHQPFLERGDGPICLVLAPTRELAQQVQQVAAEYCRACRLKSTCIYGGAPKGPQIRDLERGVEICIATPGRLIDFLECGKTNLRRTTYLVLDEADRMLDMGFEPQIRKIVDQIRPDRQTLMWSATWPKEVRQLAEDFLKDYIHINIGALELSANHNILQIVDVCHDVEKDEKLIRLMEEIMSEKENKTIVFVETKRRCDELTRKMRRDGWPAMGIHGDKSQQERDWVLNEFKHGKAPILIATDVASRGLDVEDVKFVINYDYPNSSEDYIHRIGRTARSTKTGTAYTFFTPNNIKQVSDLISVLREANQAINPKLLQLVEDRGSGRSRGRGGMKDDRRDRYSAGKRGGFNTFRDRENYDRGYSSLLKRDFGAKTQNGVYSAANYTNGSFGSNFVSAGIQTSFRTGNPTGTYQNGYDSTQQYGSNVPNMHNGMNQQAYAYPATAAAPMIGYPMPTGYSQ
UniProt O94992: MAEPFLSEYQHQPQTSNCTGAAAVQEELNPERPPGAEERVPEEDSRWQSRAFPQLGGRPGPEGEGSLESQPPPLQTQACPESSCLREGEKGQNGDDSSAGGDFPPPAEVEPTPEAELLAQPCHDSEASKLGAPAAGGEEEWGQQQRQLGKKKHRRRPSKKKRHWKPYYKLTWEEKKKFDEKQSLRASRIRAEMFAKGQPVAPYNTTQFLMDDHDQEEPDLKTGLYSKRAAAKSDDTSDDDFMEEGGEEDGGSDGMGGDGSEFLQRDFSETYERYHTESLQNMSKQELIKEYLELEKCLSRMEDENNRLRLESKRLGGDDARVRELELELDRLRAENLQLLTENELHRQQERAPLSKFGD
UniProt O60563: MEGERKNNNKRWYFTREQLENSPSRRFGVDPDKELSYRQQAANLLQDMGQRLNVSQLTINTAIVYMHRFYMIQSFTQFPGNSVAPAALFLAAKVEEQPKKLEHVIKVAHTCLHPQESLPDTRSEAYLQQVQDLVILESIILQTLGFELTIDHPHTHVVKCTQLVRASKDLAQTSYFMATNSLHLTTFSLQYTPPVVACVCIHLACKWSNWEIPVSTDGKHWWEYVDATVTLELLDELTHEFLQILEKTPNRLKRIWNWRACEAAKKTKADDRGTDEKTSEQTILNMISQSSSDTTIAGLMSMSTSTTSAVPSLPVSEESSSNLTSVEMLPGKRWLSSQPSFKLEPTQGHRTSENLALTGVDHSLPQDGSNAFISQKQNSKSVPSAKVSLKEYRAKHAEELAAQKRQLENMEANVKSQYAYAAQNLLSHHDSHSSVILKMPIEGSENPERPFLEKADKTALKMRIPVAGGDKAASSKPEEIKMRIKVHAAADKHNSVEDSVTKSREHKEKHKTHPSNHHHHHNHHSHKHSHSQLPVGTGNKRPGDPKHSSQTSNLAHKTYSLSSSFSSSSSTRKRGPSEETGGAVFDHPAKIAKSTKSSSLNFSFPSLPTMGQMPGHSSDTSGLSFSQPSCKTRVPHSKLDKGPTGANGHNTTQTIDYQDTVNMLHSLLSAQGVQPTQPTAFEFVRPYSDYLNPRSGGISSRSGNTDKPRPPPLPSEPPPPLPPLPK

The target in test [1] is Myc tagged DDX17 (human) (UniProt Q92841). As to the kind of experiment: co-IP; HeLa cells transfected with Myc-tagged constructs (with pLAI where stated), harvested after 48 h; nuclear extracts; overnight with 2 ug Myc or isotype control antibody in CO-IP buffer (20 mM HEPES pH 7.9, 150 mM NaCl, 0.5 mM DTT, 20% glycerol, 10 mM NaF), A/G Sepharose beads 3 h at 4 C; western ….

For test [2], the target named is Myc tagged DDX5 (wild type) (human) (UniProt P17844). Described as above.
The target of test [3] is Myc tagged DDX5-E249Q (human) (UniProt P17844). Described as above.
Test [4] has as its target Myc tagged DDX5-T176R + E178V + L179A (human) (UniProt P17844). The test is described as above.
Test [5] addresses Myc tagged DDX5 (wild type) (human) (UniProt P17844). As to the kind of experiment: co-IP; as a1, samples from Myc-DDX5 wild type treated with RNase enzyme; western blot for HEXIM1. (In general: A western blot detects proteins with antibodies after separation by electrophoresis.)

These are yes or no findings as the source states them, for the method shown. In cells and extracts the contact can be indirect. Some entries that bind do so weakly or less than the wild type.

For “DDX5 (endogenous) (from UniProt P17844 1-614)”, the binding entry in test [1] is reported as “binds”.

As for “DDX17 (endogenous) (from UniProt Q92841 1-729)”, the binding entry in test [2] was “binds”.

As to “HEXIM1 (hexamethylene bisacetamide (HMBA) induced protein 1) (from UniProt O94992 1-359)”, the binding result in test [3] is recorded as “no binding”; in test [2], “binds”; in test [4] it was “no binding”; in test [5], “no binding (condition: with RNase treatment)”.

In the case of “HIV-1 Tat (expressed from the proviral clone pLAI) (from UniProt P04610 1-86)”, in test [2], the binding entry was “binds”.

For the substance “P-TEFb (Cyclin T1 and CDK9) (from UniProt O60563 1-726; P50750 1-372) (complex)”, the binding entry in test [2] is recorded as “no binding”.
